# Measured values from PMC6919601, “Identification of Plasmodium dipeptidyl aminopeptidase allosteric inhibitors by high throughput screening” (PLoS ONE, 2019).
# The whole screen tested about 110,000 compounds, of which about 230 (0.21%) showed an effect of 50% or more. This is one part of the list.
# Target: DPAP1 (Plasmodium falciparum, UniProt Q8IIJ9)
# Test: primary screen, percent inhibition; read by cleavage of a fluorogenic dipeptide substrate; higher = more effect of the substance
# Design: species or system P. falciparum D10 trophozoite lysates; single well
# 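Note: 30 min substrate incubation versus DMSO and 10 µM JCP410 controls.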
# DPAP1, sequence (Q8IIJ9 whole entry, looked up): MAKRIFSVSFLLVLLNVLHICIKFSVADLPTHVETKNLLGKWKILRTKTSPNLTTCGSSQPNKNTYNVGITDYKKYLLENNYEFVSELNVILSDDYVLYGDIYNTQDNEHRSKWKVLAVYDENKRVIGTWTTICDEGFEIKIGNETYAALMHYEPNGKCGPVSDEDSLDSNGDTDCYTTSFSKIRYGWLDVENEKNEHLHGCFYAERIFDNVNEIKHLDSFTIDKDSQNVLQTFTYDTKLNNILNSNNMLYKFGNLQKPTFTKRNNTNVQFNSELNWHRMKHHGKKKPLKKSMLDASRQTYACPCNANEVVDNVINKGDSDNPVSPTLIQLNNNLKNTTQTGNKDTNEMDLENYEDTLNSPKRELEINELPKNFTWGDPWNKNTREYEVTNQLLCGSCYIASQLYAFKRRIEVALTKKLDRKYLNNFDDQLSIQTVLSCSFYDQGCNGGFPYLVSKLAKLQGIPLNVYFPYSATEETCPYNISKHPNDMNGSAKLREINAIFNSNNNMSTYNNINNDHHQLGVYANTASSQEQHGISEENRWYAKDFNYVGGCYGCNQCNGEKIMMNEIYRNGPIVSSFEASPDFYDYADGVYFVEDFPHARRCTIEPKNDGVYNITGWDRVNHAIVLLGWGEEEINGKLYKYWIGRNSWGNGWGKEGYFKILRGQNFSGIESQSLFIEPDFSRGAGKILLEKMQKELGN
row,SMILES,% Inhibition @ 10 uM
1,CC1CCN(S(=O)(=O)c2ccc(NC(=O)c3ccc(C(C)(C)C)cc3)cc2)CC1,8.1%
2,CCN(CC)CCc1c(O)n(C)c(=O)n(C)c1=O,2.58%
3,COc1ccc(C(=O)Nc2cccc(C(=O)O)c2)cc1,1.63%
4,CCN(Cc1ccncc1)S(=O)(=O)c1ccc(Cl)cc1,-5.65%
5,O=S(=O)(c1ccc(Cl)cc1)c1cnc2cc3c(cc2c1N1CCCCC1)OCCO3,-7.13%
6,CCCCNC(=O)CSCc1nc(-c2ccccc2Cl)oc1C,-2.85%
7,COc1cc(Cc2nnc(C(=O)NCCO)o2)cc(OC)c1OC,-0.602%
8,CC1(C)CC2=Nc3ccccc3NC(c3cccnc3)C2=C(O)C1 (stereo not drawn),-6.08%
9,COc1cccc(N(CC(=O)Nc2c(C)cccc2C)S(C)(=O)=O)c1,4.56%
10,C/C(=N\NC(N)=S)c1ccccc1O,16.9%
11,CCCN(CCC)c1nc2ccc(C(=O)c3ccccc3)cc2n2c(C)nnc12,-10.3%
12,Cc1nn(CCC(=O)NCc2ccccc2)c(=O)c2nn(-c3ccccc3)c(C)c12,1.26%
13,Cc1ccc(Cn2c(-c3ccco3)nc3ccccc32)cc1,7.28%
14,CCOC(=O)/N=C(/N[C@@H](CC(C)C)C(=O)NCC#N)c1ccc(Br)cc1,-3.48%
15,CCC(C)Nc1nc2ccccc2n2c(C)nnc12 (stereo not drawn),-3.41%
16,N#Cc1ccccc1Nc1nc(N)nc(Cl)n1,-0.999%
17,CCCCN1CC(C(=O)NCc2ccc(F)cc2)CC1=O (stereo not drawn),-5.43%
18,O=S(=O)(c1ccc(-c2csc(Nc3ccc(Br)cc3)n2)cc1)N1CCCC1,-6.18%
19,O=C1NC(=O)/C(=C\c2ccc(F)cc2)N1,18%
20,NC(=O)CN1C(=O)C(O)(CC(=O)c2ccccc2)c2ccccc21 (stereo not drawn),-2.75%
21,COc1cccc(OC)c1C(=O)Nc1ccccc1Br,-3.65%
22,CC(NC(=O)C1CCCN(C(=O)c2cc3sccc3n2C)C1)C12CC3CC(CC(C3)C1)C2 (stereo not drawn),-7.84%
23,C=CCn1c(SCC#N)nc2sc(CC)cc2c1=O,-3.46%
24,CN1C(=O)C(S(=O)(=O)c2ccccc2)C2CC1(C)Oc1ccccc12 (stereo not drawn),-4.47%
25,CCOC(=O)/C(C#N)=C/c1c(Oc2ccc(Cl)c(C)c2)nc2ccccn2c1=O,-4%
26,Cc1ccc(C(=O)NC(Cc2c[nH]c3ccccc23)C(=O)O)cc1 (stereo not drawn),-5.28%

row,SMILES,% Inhibition @ 10 uM
1,COc1ccc(-c2nc(O)c3c(n2)Oc2ccc(C)cc2C3)c(OC)c1,5.48%
2,Cc1cccc(C(=O)Nc2ccc(C(C)C)cc2)c1,-0.192%
3,CCc1cccc(C)c1NC(=O)CN(c1ccc(Cl)cc1C)S(C)(=O)=O,-0.251%
4,CCC(C)c1ccc(NC(=O)COc2ccc(F)cc2)cc1 (stereo not drawn),-2.22%
5,O=C(NCc1nc2ccccc2n1CCOc1ccc(Cl)cc1)c1ccccc1,5.35%
6,CCCCn1nnnc1NCc1cccnc1,0.776%
7,CC1CCC(C(=O)NC(Cc2ccccc2)C(=O)NCCc2ccc(S(N)(=O)=O)cc2)CC1 (stereo not drawn),-4.86%
8,CN(CC(=O)NCc1ccco1)S(=O)(=O)c1ccc(F)cc1,1.19%
9,Nc1ccc(-c2cc3ccccc3oc2=O)cc1,-7.6%
10,CCOC(=O)N1CCC(NC(C)c2ccc(F)cc2)CC1 (stereo not drawn),4.82%
11,O=C(Nc1cccc(Cl)c1Cl)C12CC3CC(CC(C3)C1)C2,-3.79%
12,C=CCOc1c(Br)cc(Br)cc1/C=C1\SC(N)=NC1=O,-3.92%
13,NC(=O)c1c2c(nc3ccccc13)CCN(Cc1ccccc1)C2,-3.34%
14,OC12CCCCC1C(c1ccc(F)cc1F)NCC2 (stereo not drawn),-3.63%
15,Cc1ccc(C)c(N(CC(=O)NC(C)c2ccccc2)S(C)(=O)=O)c1 (stereo not drawn),-2.54%
16,Cc1ccc(Cn2c(C)c3cnn(CC(=O)N4CCN(C)CC4)c(=O)c3c2C)cc1,2.84%
17,Cc1oc(-c2cccc(Cl)c2)nc1CN1CCCC(C(=O)NCCC2=CCCCC2)C1 (stereo not drawn),-4.71%
18,CCN1CCN(Cc2nc3c(c(=O)n(C)c(=O)n3C)n2CCc2ccccc2)CC1,-5.1%
19,COc1cc(C2C(C#N)=C(N)Oc3cc(C)nc(O)c32)ccc1OCc1ccc(Cl)cc1 (stereo not drawn),2.31%
20,CCOc1ccc(C2Nn3c(C)nnc3SC2C(=O)NCc2ccc(OC)cc2)cc1 (stereo not drawn),4.93%
21,O=C(c1ccco1)N1CCN(c2ccccc2)CC1,-1.88%
22,O=C(CN1C(=O)C2C3CCC(C3)C2C1=O)Nc1ccccc1 (stereo not drawn),2.76%
23,CC1CCCC(C)N1C(=O)c1cccc(N)c1 (stereo not drawn),-8.43%
24,C/C(O)=C\C(C)=N\c1cccc(C(=O)c2ccccc2)c1,-2.8%
25,Cc1ccnc2nc(NC(=O)c3ccccc3F)nn12,2.05%
